Experimental data reported in the supplement of paper PMC11417369.
± gives the standard deviation of the averaged measurements. Some of the results follow.

test system: PfAP2-G AP2 domain (GST-tagged); test: gcPBM binding intensity (ln(normalized median fluorescence intensity)); higher = stronger DNA binding
Method in brief: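 Binding intensity is defined as the maximum Masliner-normalised natural-log median intensity across replicate spots for either probe orientation. It was measured on an Agilent 4 × 180k array of primer-extended double-stranded 36-bp intergenic genomic probes and negative controls, to which GST-tagged P. falciparum DNA-binding domains made in E. coli were applied for 1 h in 1× PBS with 1% milk, 0.2 mg/ml BSA, 0.5% salmon testes DNA and 0.03% Triton X-100. Detection was by Alexa488 anti-GST antibody and scanning at 488 nm.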

| Sequence | gcPBM binding intensity (ln) |
| --- | --- |
| ATATATATATATATATGTACATATATATATGTATAT [XGTACX_site3959] | 11.4 ± 1 |
| ATATTATTTTAAAGTACACACATATATTAATATATA [CACACA_site2315] | 11.6 ± 1 |
| TATACATACAGACCCACACACAAAAAAAAAAAAAAA [CACACA_site6536] | 10.3 ± 0.73 |
| TTATACATAAATTTTGTACACACAAAAAAAAAAAAG [CACACA_site8374] | 11.2 ± 0.87 |
| TTTCAAAAGTAATACTGTACTTATTTTTATGATTTA [XGTACX_site4184] | 11.6 ± 1.2 |
| ACATATTTTATTTTTTGTACACATATATTATTTTTT [XGTACX_site6528] | 11.3 ± 0.66 |
| TTTTTGTTAAACAGGGTGCTAATCTGAATTAATATT [GTGCAC_site9908] | 9.97 ± 0.13 |
| GAATTTTTTTAATGTTGTACTTTTTTTTTTTTTTCT [XGTACX_site648] | 11.4 ± 0.96 |
| ACATATATATATATATATATATATATATTACATTTA [CACACA_negctrl_site627] | 10.3 ± 0.45 |
| CATACCATACATAAAACACACAAAATTTACAGAATA [CACACA_site7451] | 9.92 ± 0.028 |
| AATAGTAAAAATCACTGTACGTTTATTTTTAAAATG [XGTACX_site1035] | 11.7 ± 0.91 |
| CCATATACAACCATACGTACATATATATATATATAT [XGTACX_site8193] | 11.5 ± 0.99 |
| TTTGGTTATATTTAAAAAAGACTAATGAAAATTAAA [XGTACX_negctrl_site526] | 9.81 ± 0.028 |
| AAAAAAAAAAAAAATACACACATAAAATAAATAACA [CACACA_site439] | 10 ± 0.2 |
| AATTTACAAATATAATGTACATAATTATATATATAT [XGTACX_site278] | 11 ± 0.53 |
| ATATATATATATTACACACACACAAAAAAAATAAAG [CACACA_site118] | 10.4 ± 0.26 |
| TATATACTTTTATGTACACACCTATAATATGGGTGA [CACACA_site5044] | 11.4 ± 0.7 |
| ATATTATTTATAGGGTGTACCTTATTATTATAAGAA [XGTACX_site7148] | 11.2 ± 0.77 |
| TAGAAAAACATTACGTGTACCAAACATCCTAGCAAC [XGTACX_site4888] | 10.9 ± 0.42 |
| TATAATATTATACATAGTACACATCACACATCGCAA [XGTACX_site4650] | 11.2 ± 0.7 |
| AAAATAAGGAAAAAAAAAAAAAAAAAAAAAAAAAAG [CACACA_negctrl_site1291] | 10.1 ± 0.13 |
| ATAATATTTTGAAACGGTACACTTTTAAAATACACT [XGTACX_site4423] | 11 ± 0.69 |

| Sequence | gcPBM binding intensity (ln) |
| --- | --- |
| AATAAAAATCCACAAGCACACAAATGTACTTATATA [CACACA_site8783] | 11.4 ± 0.85 |
| TAAATACAAAAATGTACACACATATAAATATTTTTA [CACACA_site7612] | 11.4 ± 0.93 |
| AAAAAAAAAAAACATACACACAAATATGTACATACA [CACACA_site7807] | 11.4 ± 0.81 |
| TATATATTAATATATGCATGTACGATTATTATAATA [TGCATGCA_site446] | 11.2 ± 0.9 |
| CTTAGTGTATTTGAATGTACGCATAAATATAATTAT [XGTACX_site2830] | 11.6 ± 1.1 |
| ATTATTAAAATGATATGTACGCACATAATATACATA [XGTACX_site3236] | 11.6 ± 0.94 |
| ACAAGATGATGGAAATGTACATAAAAAGAATCATAT [XGTACX_site8682] | 11.2 ± 0.63 |
| TTTTTTTTTATATTTAGTACATATATATTATTATAT [XGTACX_site3334] | 10.9 ± 0.57 |
| AACACTACATAAAACTGTACAATAGTATTTTATTAT [XGTACX_site996] | 10.9 ± 0.49 |
| TTAATTAAATATTATACACACAAAAAAATAACTTTA [CACACA_site6197] | 10.1 ± 0.19 |
| TGTATTTAAAATGGTTGTACATAAATAAAAATAAAA [XGTACX_site7771] | 11.3 ± 0.73 |
| TATTGAAACGTATAGACACACATATGATATATATAT [CACACA_site3226] | 10.1 ± 0.18 |
| ATTTATTTATTTATATGTACTTATATATGTATTTTC [XGTACX_site6269] | 11.3 ± 0.84 |
| AAAGTGTTAACCTAATCTTTAGTTTTTAAACAATAT [CACACA_negctrl_site841] | 9.79 ± 0.11 |
| ATTATATATACACGCACACACACTTATATATATATA [CACACA_site9093] | 10.4 ± 0.18 |
| CATTCATTTATTAATTGTACTTTTAAGGTTAAATAA [XGTACX_site5838] | 11.4 ± 1.1 |
| TAAAAATATATACATACATGCATACATATATATGTA [TGCATGCA_site774] | 9.81 ± 0.042 |
| TTTTTAACATATCATACACACAACAACTTTTTATAG [CACACA_site1962] | 10.2 ± 0.27 |
| CAAGCCCTTCTGCTTACACACAGTAATTATTGTGTA [CACACA_site2953] | 9.72 ± 0.18 |
| AATATTTATTTTACATGTACTTATTTTTCTTTTAAC [XGTACX_site3631] | 11.4 ± 0.88 |
| AATATATATTTATATTGTACATATATATATATTTCT [XGTACX_site2603] | 11 ± 0.64 |
| TAATTTATTATATTTTGTACGTAAAATTATTATTGT [XGTACX_site8155] | 11.3 ± 0.81 |

| Sequence | gcPBM binding intensity (ln) |
| --- | --- |
| TAGGAAAAGAAAAGCACACACATAAATAAATATATA [CACACA_site504] | 9.74 ± 0.11 |
| CCATTAAATACATACACACCCACACCCAAAAAAAAA [CACACA_site4633] | 10.6 ± 0.43 |
| ATATAGTAAAATTATACACACATGAATTTTCCCATA [CACACA_site3113] | 9.94 ± 0.028 |
| ACAAAATTTACAAAATGTACATATTGTAGATATTGT [XGTACX_site7618] | 11.1 ± 0.62 |
| AAAAAAAAAAATATAACACACAAAAAATTGTATCGA [CACACA_site1144] | 9.65 ± 0.18 |
| TATATATAATTTTATACATGCACATATTATATATAT [TGCATGCA_site1036] | 9.96 ± 0.13 |
| TATATTTTTTAAACCACACACAATATAGAGTATAAT [CACACA_site4510] | 10.5 ± 0.38 |
| ATTTATTCATTTGGGTGTACTATTTAAAAAAAACAA [XGTACX_site498] | 11.4 ± 0.8 |
| TATTTATATTTTAACACACACATATTTATATTTATA [CACACA_site7324] | 10 ± 0.31 |
| AAAAAAAAAAAACATACACACAATAAAATAGGGGTA [CACACA_site2399] | 9.83 ± 0.085 |
| ATTTATTTATTAAGATGTACTTATTAAAAATAATAA [XGTACX_site7392] | 11.4 ± 1.2 |
| TATAAATAAAGACACACACACATATAAATAAATATA [CACACA_site7155] | 9.98 ± 0.23 |
| TTTATATACTATTCAAAGTGATAAATAATATATGAA [TGCATGCA_negctrl_site352] | 9.76 ± 0.18 |
| AATAAGAAATGTAAATGTACATAAAAAAAAGTATAT [XGTACX_site3573] | 11.2 ± 0.57 |
| TATATATATATATTATGTACATATATATTAAATATG [XGTACX_site2494] | 11.2 ± 0.61 |
| TTAGGGTTTTATAAATGTACTTATTTATACATCCTC [XGTACX_site5769] | 11.1 ± 0.88 |
| CACATACAGACATACACACACATATAGATTAATATA [CACACA_site6399] | 10.2 ± 0.26 |
| ATTTTTTAACATATCATACACACAACCACTTTTTAT [CACACA_site1961] | 10.6 ± 0.36 |
| TAAACATTTTTGCACGCACACAAAAAAAAAATAAAA [CACACA_site167] | 10.5 ± 0.46 |
| ATTAAATGCAGTTCGGTGCATTAAGGTTATGATGAA [GTGCAC_site9883] | 9.94 ± 0.11 |
| AACATAAAAATGAACATACACACATATATATATATA [CACACA_site2497] | 10.1 ± 0.37 |
| ATAAAAATACAGTTAACACACATGTGGATATATATG [CACACA_site3771] | 10.2 ± 0.049 |

| Sequence | gcPBM binding intensity (ln) |
| --- | --- |
| CATACATACAGACACACACACATATATATATATATA [CACACA_site2920] | 10.3 ± 0.3 |
| AGATATTATAATTAATGTACAAAAAGAAAAAATAGA [XGTACX_site8964] | 10.8 ± 0.35 |
| AAACAAAAAAGTAAGAAAAGGGATGATTGGATCCAA [CACACA_negctrl_site1230] | 10.01 ± 0.057 |
| TATTATTCTGTATTTGCATGTGATCATATATATGTA [TGCATGCA_site1053] | 10.095 ± 0.007 |
| CATATGTATATGACTACACACAAGGGTGTACAGATA [CACACA_site4776] | 11.6 ± 0.95 |
| TTTTTTTTTTTTTATTGTACAAAGGTATAAAATAAT [XGTACX_site2396] | 10.9 ± 0.68 |
| TATATAACATAATATACACACATTATGTGCGTAATT [CACACA_site4073] | 10.15 ± 0.085 |
| GTATATCATTTTGGGGTGCTTAAAAATAATGAATAC | 10.7 ± 0.57 |
| TATAGATAAGAATATGCACACATTTTATTTTTTTTT [CACACA_site1982] | 9.79 ± 0.28 |
| TTGTAATATCTTGTCACACATATATATATATATATA [CACACA_site4937] | 10.1 ± 0.26 |
| ATATATTTAATATTCACACATAATTATTTTTACTCT [CACACA_site5438] | 9.59 ± 0.48 |
| ATATAATGATAATATTGTACATGTTATATTTCAATA [XGTACX_site8645] | 10.9 ± 0.6 |
| AAACATTAAAATAACTCACACATTTTTCTAGTCTTC [CACACA_site4612] | 9.75 ± 0.14 |
| TTTTTAATTTATTAAGAAGTAAAGAATAACTCTTTT [TGCATGCA_negctrl_site101] | 9.55 ± 0.042 |
| AATATATTTTTATATTGTACAAAAGAAAAAAAATAT [XGTACX_site1689] | 10.9 ± 0.64 |
| CATATAATATTTGAAACTATATATAAATATAAGGTA [TGCATGCA_negctrl_site19] | 9.81 ± 0.057 |
| GTATTATCTTTTAATAGTACATATTTTTTTGAAACA [XGTACX_site4050] | 11 ± 0.65 |
| TATATCCATATTGTATGTACACATATAATACCAATG [XGTACX_site7230] | 11.5 ± 0.77 |
| AGTTTTCCATGTTAATGTACTTAACAATACCATAAT [XGTACX_site209] | 11.2 ± 0.81 |
| ATTTATTCATAGACAACAAGAAAAAAAAAAAAAATT [CACACA_negctrl_site1168] | 9.94 ± 0.23 |
| TATTAAATATTCATATGTACATATAGTTTATAAATT [XGTACX_site7455] | 11.1 ± 0.66 |
| TTTTTTTTTTTTTTTACACACAAATGTATACTATAT [CACACA_site1787] | 9.98 ± 0.36 |
